Measurements published in paper PMC6919601, “Identification of Plasmodium dipeptidyl aminopeptidase allosteric inhibitors by high throughput screening” (PLoS ONE, 2019).
Screen size: about 110,000 compounds; about 230 (0.21%) showed an effect of 50% or more. The list shows a part of the results.

molecular target: DPAP1 (Plasmodium falciparum, UniProt Q8IIJ9); assay: primary screen, percent inhibition; read by cleavage of a fluorogenic dipeptide substrate; higher = more effect of the substance; set-up: species or system P. falciparum D10 trophozoite lysates; single well
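Further: 30 min substrate incubation versus DMSO and 10 µM JCP410 controls.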

Chain of DPAP1 (Q8IIJ9 whole entry, looked up): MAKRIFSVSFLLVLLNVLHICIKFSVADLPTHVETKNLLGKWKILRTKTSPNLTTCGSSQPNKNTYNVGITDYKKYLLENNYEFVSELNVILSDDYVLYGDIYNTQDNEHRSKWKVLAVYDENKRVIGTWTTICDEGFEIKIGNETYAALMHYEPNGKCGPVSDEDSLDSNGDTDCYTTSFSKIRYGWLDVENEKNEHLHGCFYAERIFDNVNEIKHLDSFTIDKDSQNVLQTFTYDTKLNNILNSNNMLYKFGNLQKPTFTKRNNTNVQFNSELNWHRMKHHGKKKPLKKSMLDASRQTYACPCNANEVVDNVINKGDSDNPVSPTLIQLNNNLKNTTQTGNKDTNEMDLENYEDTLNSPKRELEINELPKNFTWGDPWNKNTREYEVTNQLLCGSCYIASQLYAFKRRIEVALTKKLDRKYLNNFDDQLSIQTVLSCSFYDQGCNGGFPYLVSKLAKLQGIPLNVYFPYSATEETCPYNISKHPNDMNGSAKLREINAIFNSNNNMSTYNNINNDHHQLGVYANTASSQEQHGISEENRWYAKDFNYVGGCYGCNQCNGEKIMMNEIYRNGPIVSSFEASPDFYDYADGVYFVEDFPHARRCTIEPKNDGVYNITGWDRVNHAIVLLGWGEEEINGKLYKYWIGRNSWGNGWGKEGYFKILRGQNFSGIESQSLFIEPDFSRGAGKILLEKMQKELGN

Going from `Cc1cc(N2CCN(C(=O)c3ccco3)CC2)n2ncnc2n1` to `O=C(N/C(=C/c1ccc2c(c1)OCO2)C(=O)N1CCCC1=O)c1ccco1`, the “% Inhibition @ 10 uM” value rises from -4.03% to 1.63%.

First: Cc1cccc(N(CN2C(=O)C3C4C=CC(C5CC45)C3C2=O)C(=O)c2ccccc2)c1 (centres unmarked)
Second: CC(=O)Nc1ccc(NC(=O)c2cccc(Cl)c2)cc1
The “% Inhibition @ 10 uM” value of the first is higher: 1.61% for the first, -5.07% for the second.

First: CC(=O)NS(=O)(=O)c1ccc(-c2ccc(/C=C3/C(=O)N(C)C(=O)C(C#N)=C3C)o2)cc1
Second: CC(=O)c1c(C)oc2ccc(N(C(C)=O)S(=O)(=O)c3ccc(C)cc3C)cc12
The “% Inhibition @ 10 uM” value of the first is higher: 5.75% for the first, -9.02% for the second.

First: Cc1ccc2[nH]c3c(c2c1)CCCCC3O (centres unmarked)
Second: CCc1ccc(N2CC(C(=O)NC3CCCCC3C)CC2=O)cc1 (centres unmarked)
The “% Inhibition @ 10 uM” value of the first is higher: 3.76% for the first, 0.83% for the second.

Compared with `OCCN1CCN(C2C3CC4CC(C3)CC2C4)CC1` (centres unmarked), `O=C(NCC1CCCO1)C1CCN(S(=O)(=O)c2ccc(F)cc2)CC1` (centres unmarked) is higher in “% Inhibition @ 10 uM” value: 1.57% for the first, 3.47% for the second.

First: COc1ccccc1-c1cc(N)n(S(=O)(=O)c2cc(Cl)sc2Cl)n1
Second: O=C(NCc1ccccc1)c1cc(S(=O)(=O)N2CCOCC2)c(Cl)cc1Cl
The “% Inhibition @ 10 uM” value of the first is higher: 1.15% for the first, -0.769% for the second.

Going from `O=C(CCCN1CCc2ccccc2C1)c1ccc(F)cc1` to `Cc1nn(CC(=O)N2CCc3ccccc3C2)c(C)c1Cl`, the “% Inhibition @ 10 uM” value rises from -7.18% to 0.883%.

Compared with `Cc1nc(N2CCN(c3ccccn3)CC2)c2c(C)c(C(=O)NC3CCCCCC3)sc2n1`, `O=C(NC1CCCc2ccccc21)C1CCN(c2nnc(-n3cccc3)s2)CC1` (centres unmarked) is higher in “% Inhibition @ 10 uM” value: -3.21% for the first, 4.33% for the second.

First: COCCCNC(=O)C1CCCN(S(=O)(=O)c2c(C)noc2/C=C/c2cccs2)C1 (centres unmarked)
Second: Cc1noc(/C=C/c2ccco2)c1S(=O)(=O)N1CCC(C(=O)NC2CCCC(C)C2C)CC1 (centres unmarked)
The “% Inhibition @ 10 uM” value of the first is higher: 0.0579% for the first, -6.89% for the second.

Compared with `COc1cc2c(cc1OC)C(C(=O)N1CCC3(CC1)OCCO3)C(c1cccs1)N(C)C2=O` (centres unmarked), `Cc1cccc(NC(=O)C2CCN(S(=O)(=O)c3cccs3)CC2)n1` is lower in “% Inhibition @ 10 uM” value: 2.59% for the first, -5.52% for the second.

Going from `O=C(O)c1ccccc1NC(=O)c1ccc([N+](=O)[O-])cc1[N+](=O)[O-]` to `CCCNC(=O)Cn1c(C(=O)OC)ccc1-c1ccco1`, the “% Inhibition @ 10 uM” value rises from -5.35% to 1.22%.

Going from `CCc1cc2c(cc3c(=O)n(CC(=O)NCCc4ccc(Cl)cc4)nc(CC)n32)s1` to `CCOc1ccc(C(C)NC(=O)c2cccs2)cc1OCC` (centres unmarked), the “% Inhibition @ 10 uM” value rises from 1.68% to 2.17%.

Compared with `CCCc1ccc(OCC(O)CN2CCCCC2)cc1` (centres unmarked), `CCOc1cc(/C=C/c2cc(C(F)(F)F)nc(O)n2)cc(Cl)c1O` is higher in “% Inhibition @ 10 uM” value: -2.15% for the first, 3.76% for the second.
